Experimental data from the supplement of paper PMC7125110.
± gives the standard error. Variants at the floor of the assay are shown more often than the library holds them.

B1: glmS ribozyme (parent)
chain: AUAAAAGCGCCAGAACUACAGAAAUGUAGUUGACGAGGAGGAGGUUUAUCGAAUUUUCGGCGGAUGCCUCCAAA

Tests used:
Details in all cases: with glucosamine-6-phosphate
[1] = variants of: B1; assay: self-cleavage kobs at 40 uM GlcN6P; higher = faster cleavage; RNA array
How it was run: (§1)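 Tracking of barcoded ribozyme variants used a hybridised Cy3 probe at 37 °C, after in situ transcription by E. coli RNA polymerase on sequenced MiSeq chips. The flowed solution held 40 μM to 10 mM glucosamine-6-phosphate in HEPES/KCl/Mg(OAc)2 buffer, and imaging ran over ~14 h. kobs was taken from exponential decay fits of normalised per-tile medians, and kcat and KM from weighted Michaelis–Menten fits.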

[2] = variants of: B1; assay: self-cleavage kobs at 640 uM GlcN6P; higher = faster cleavage; RNA array
How it was run: as §1

[3] = variants of: B1; assay: self-cleavage kobs at 2500 uM GlcN6P; higher = faster cleavage; RNA array
How it was run: as §1

[4] = variants of: B1; assay: self-cleavage kobs at 10000 uM GlcN6P; higher = faster cleavage; RNA array
How it was run: as §1

[5] = variants of: B1; assay: self-cleavage kobs at 160 uM GlcN6P; higher = faster cleavage; RNA array
How it was run: as §1

Variant	self-cleavage kobs at 40 uM GlcN6P [1]	self-cleavage kobs at 640 uM GlcN6P [2]	self-cleavage kobs at 2500 uM GlcN6P [3]	self-cleavage kobs at 10000 uM GlcN6P [4]	self-cleavage kobs at 160 uM GlcN6P [5]
C10A U65G	< 1e-05 s⁻¹	< 1e-05 s⁻¹	< 1e-05 s⁻¹	< 1e-05 s⁻¹	–
C10G A33G G40A A42U	< 1e-05 s⁻¹	–	–	–	–
C10G A42C C61U	< 1e-05 s⁻¹	–	–	< 1e-05 s⁻¹	–
C10G A52C	< 1e-05 s⁻¹	< 1e-05 s⁻¹	< 1e-05 s⁻¹	< 1e-05 s⁻¹	< 1e-05 s⁻¹
C10G C16G G40U	< 1e-05 s⁻¹	–	< 1e-05 s⁻¹	–	–
C10G C34A A48C U49C	< 1e-05 s⁻¹	–	–	–	–
C10G C68A	< 1e-05 s⁻¹	–	–	–	–
C10G G29A U54G	< 1e-05 s⁻¹	–	–	–	–
C10G G37C	< 1e-05 s⁻¹	–	–	< 1e-05 s⁻¹	–
C10G G38C U69G	< 1e-05 s⁻¹	–	–	–	–
C10G G40U	< 1e-05 s⁻¹	< 1e-05 s⁻¹	< 1e-05 s⁻¹	< 1e-05 s⁻¹	< 1e-05 s⁻¹
C10G U30C A33C U55A	< 1e-05 s⁻¹	–	–	< 1e-05 s⁻¹	–
C10G U30C G32U G66A	< 1e-05 s⁻¹	< 1e-05 s⁻¹	–	–	< 1e-05 s⁻¹
C10G U46C	< 1e-05 s⁻¹	< 1e-05 s⁻¹	< 1e-05 s⁻¹	< 1e-05 s⁻¹	< 1e-05 s⁻¹
C10U A15U C67A	< 1e-05 s⁻¹	–	–	–	–
C10U G32A C70U	< 1e-05 s⁻¹	–	–	–	–
C10U G40U A48U	< 1e-05 s⁻¹	< 1e-05 s⁻¹	–	< 1e-05 s⁻¹	–
C10U G41C	< 1e-05 s⁻¹	–	–	< 1e-05 s⁻¹	< 1e-05 s⁻¹
C10U G43U U65C	< 1e-05 s⁻¹	–	–	< 1e-05 s⁻¹	–
C10U G44C	< 1e-05 s⁻¹	< 1e-05 s⁻¹	< 1e-05 s⁻¹	< 1e-05 s⁻¹	< 1e-05 s⁻¹
C10U U31A G38U	< 1e-05 s⁻¹	< 1e-05 s⁻¹	–	< 1e-05 s⁻¹	–
C10U U46G C70U	< 1e-05 s⁻¹	–	–	–	–
C11A A48U	< 1e-05 s⁻¹	–	–	–	< 1e-05 s⁻¹
C11A A48U A52U	< 1e-05 s⁻¹	–	–	< 1e-05 s⁻¹	–
C11A C34G G38A G43U U55G G63A	< 1e-05 s⁻¹	< 1e-05 s⁻¹	< 1e-05 s⁻¹	< 1e-05 s⁻¹	< 1e-05 s⁻¹
C11A C68A	< 1e-05 s⁻¹	–	–	–	–

Variant	self-cleavage kobs at 40 uM GlcN6P [1]	self-cleavage kobs at 640 uM GlcN6P [2]	self-cleavage kobs at 2500 uM GlcN6P [3]	self-cleavage kobs at 10000 uM GlcN6P [4]	self-cleavage kobs at 160 uM GlcN6P [5]
C11A G38C G66U	< 1e-05 s⁻¹	< 1e-05 s⁻¹	–	< 1e-05 s⁻¹	–
C11A G40A	< 1e-05 s⁻¹	–	–	–	–
C11A U30A G32A C50A	< 1e-05 s⁻¹	–	–	–	–
C11A U69G	5.85e-05 ± 9.2e-06 s⁻¹	0.000166 ± 4.5e-05 s⁻¹	–	5.17e-05 ± 1.1e-05 s⁻¹	0.000398 ± 0.00018 s⁻¹
C11G A12C	< 1e-05 s⁻¹	–	6.61e-05 ± 1.2e-05 s⁻¹	0.00011 ± 1.3e-05 s⁻¹	–
C11G C16A A33U C58G	< 1e-05 s⁻¹	–	–	–	–
C11G C16A G38C	< 1e-05 s⁻¹	–	–	–	–
C11G C34G C50A G62U	< 1e-05 s⁻¹	–	–	< 1e-05 s⁻¹	–
C11G G32C G44A U55A C61U	< 1e-05 s⁻¹	–	–	< 1e-05 s⁻¹	–
C11G G32U A36G G38A A53G	< 1e-05 s⁻¹	–	–	–	–
C11G G35C G37U G62U	< 1e-05 s⁻¹	< 1e-05 s⁻¹	–	< 1e-05 s⁻¹	< 1e-05 s⁻¹
C11G G41U A42G	< 1e-05 s⁻¹	–	< 1e-05 s⁻¹	–	–
C11G G60A	< 1e-05 s⁻¹	–	< 1e-05 s⁻¹	< 1e-05 s⁻¹	< 1e-05 s⁻¹
C11G G60C	< 1e-05 s⁻¹	< 1e-05 s⁻¹	–	< 1e-05 s⁻¹	< 1e-05 s⁻¹
C11G U31C	< 1e-05 s⁻¹	< 1e-05 s⁻¹	–	–	–
C11G U57G	< 1e-05 s⁻¹	–	< 1e-05 s⁻¹	< 1e-05 s⁻¹	< 1e-05 s⁻¹
C11U A14U G43U U54A G63A	< 1e-05 s⁻¹	–	< 1e-05 s⁻¹	–	–
C11U A48G C67G	< 1e-05 s⁻¹	–	< 1e-05 s⁻¹	–	–
C11U C50G U65A C68A	8.61e-05 ± 2.8e-05 s⁻¹	–	–	–	–
C11U C58G C67U U69G	3.48e-05 ± 1.2e-05 s⁻¹	–	–	6.72e-05 ± 1.3e-05 s⁻¹	–
C11U G32C U55G A64C	< 1e-05 s⁻¹	–	–	–	–
C11U G44C U46G	< 1e-05 s⁻¹	< 1e-05 s⁻¹	–	< 1e-05 s⁻¹	–
C11U U31C U46C U49G U56A	< 1e-05 s⁻¹	–	–	–	–
C11U U56A U57G	< 1e-05 s⁻¹	< 1e-05 s⁻¹	–	–	–
A12C A15U	7.96e-05 ± 8.9e-06 s⁻¹	0.00126 ± 0.0002 s⁻¹	0.0012 ± 0.00021 s⁻¹	0.00271 ± 0.00031 s⁻¹	0.000208 ± 3.6e-05 s⁻¹
